Test results as given in patent publication EP4755449A2.

Assays:
Experiment in all cases: SPR 25C
[1] = biological target: cyno Fc gamma RIIa1 extracellular domain, His-tagged (cynomolgus monkey)
[2] = biological target: human Fc gamma RIIIaV extracellular domain, His-tagged (human) (UniProt P08637)
[3] = biological target: human Fc gamma RIIaH extracellular domain, His-tagged (human) (UniProt P12318)
[4] = biological target: human Fc gamma RIIb extracellular domain, His-tagged (human) (UniProt P31994)
[5] = biological target: cyno Fc gamma RIIb extracellular domain, His-tagged (cynomolgus monkey)
[6] = biological target: cyno Fc gamma RIIa2 extracellular domain, His-tagged (cynomolgus monkey)
[7] = biological target: cyno Fc gamma RIIIaS extracellular domain, His-tagged (cynomolgus monkey) (UniProt Q8SPW2)
[8] = biological target: cyno Fc gamma RIIa3 extracellular domain, His-tagged (cynomolgus monkey)
[9] = biological target: human Fc gamma RIIaR extracellular domain, His-tagged (human) (UniProt P12318)

Sequence of UniProt Q8SPW2 (Q8SPW2 other isoform, or with tags, fused parts or gaps): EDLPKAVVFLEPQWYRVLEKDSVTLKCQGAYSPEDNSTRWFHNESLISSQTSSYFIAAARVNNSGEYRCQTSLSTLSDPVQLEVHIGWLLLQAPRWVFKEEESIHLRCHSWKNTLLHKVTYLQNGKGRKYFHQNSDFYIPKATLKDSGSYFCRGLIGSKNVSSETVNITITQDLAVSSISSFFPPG
Sequence of UniProt P31994 (P31994 43-217): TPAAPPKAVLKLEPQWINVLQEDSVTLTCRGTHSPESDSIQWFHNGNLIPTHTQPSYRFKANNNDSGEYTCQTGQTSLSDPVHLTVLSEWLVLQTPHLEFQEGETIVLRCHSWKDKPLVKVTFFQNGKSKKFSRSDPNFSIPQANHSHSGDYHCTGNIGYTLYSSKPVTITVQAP
Sequence of UniProt P08637 (P08637 17-208 F176V): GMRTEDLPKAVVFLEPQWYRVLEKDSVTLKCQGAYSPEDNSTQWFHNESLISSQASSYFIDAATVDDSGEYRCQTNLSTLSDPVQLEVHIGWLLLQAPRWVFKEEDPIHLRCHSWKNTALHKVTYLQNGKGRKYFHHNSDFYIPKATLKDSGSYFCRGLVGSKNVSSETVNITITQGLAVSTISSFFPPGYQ
Sequence of cyno Fc gamma RIIb extracellular domain, His-tagged (cynomolgus monkey) (chain, as listed by the source): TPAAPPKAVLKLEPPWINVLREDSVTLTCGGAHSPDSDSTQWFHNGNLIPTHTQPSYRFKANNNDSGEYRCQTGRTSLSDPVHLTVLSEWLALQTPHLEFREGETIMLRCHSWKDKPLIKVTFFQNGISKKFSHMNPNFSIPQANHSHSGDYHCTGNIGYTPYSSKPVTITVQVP

relative binding [1] [SG1=100]	KD fold vs SG1 [2] [fold]	KD fold vs SG1 [3] [fold]	KD fold vs SG1 [4] [fold]	relative binding [5] [SG1=100]	relative binding [6] [SG1=100]	KD fold vs SG1 [7] [fold]	relative binding [7] [SG1=100]	relative binding [8] [SG1=100]	KD fold vs SG1 [9] [fold]	relative binding (parent B3=100) [2]	relative binding (parent B3=100) [3]	relative binding (parent B3=100) [4]	relative binding (parent B3=100) [9]	Binder
83	0.04	0.2	0.6	85	86	0.03	15	62	0.1	–	–	–	–	M103205H795-MY001/M103202L889-SK1 (antibody, human IgG1, kappa) heavy: QVTLKESGPVLVKPTETLTLTCTVSGIDLSHDDISWVRQAPGKGLEWVGIISYAGSTYYASWAKGRLTISKDTSKNQVVLTMTNMDPVDTATYYCARGVPAYSHGGDLWGQGTLVTVSSASTKGPSVFPLAPSSKSTSGGTAALGCLVKDYFPEPVTVSWNSGALTSGVHTFPAVLQSSGLYSLSSVVTVPSSSLGTQTYICNVNHKPSNTKVDKKV[letters of human IgG1 Fc with G236N (EU numbers) not shown] light: DIVMTQSPATLSLSPGERATLSCTSSQSVYHANWLSWFQQKPGQPPKLLIYWASTLAYGVPSRFSGSGSGTDFTLTISSLQPEDAATYYCAGGYGGGRYAFGQGTKVEIKRTVAAPSVFIFPPSDEQLKSGTASVVCLLNNFYPREAKVQWKVDNALQSGNSQESVTEQDSKDSTYSLSSTLTLSKADYEKHKVYACEVTHQGLSSPVTKSFNRGEC
–	–	–	–	–	–	–	–	–	–	155	97	108	72	GpH7-B3 K334D/GpL16-k0 (antibody, human IgG1, kappa) heavy: QVQLVQSGAEVKKPGASVTVSCKASGYTFTDYEMHWIRQPPGEGLEWIGAIDPKTGDTAYSESFQDRVTLTADKSTSTAYMELSSLTSEDTAVYYCTRFYSYTYWGQGTLVTVSS[letters of human IgG1 constant region with K334D K439E (EU numbers) not shown] light: DIVMTQSPLSLPVTPGEPASISCQASESLVHSNRNTYLHWYLQKPGQSPQLLIYKVSNRFSGVPDRFSGSGSGTDFTLKISRVEAEDVGVYYCSQNTHVPPTFGQGTKVEIERTVAAPSVFIFPPSDEQLKSGTASVVCLLNNFYPREAKVQWKVDNALQSGNSQESVTEQDSKDSTYSLSSTLTLSKADYEKHKVYACEVTHQGLSSPVTKSFNRGEC
